Among all 220,000 compounds or so, about 5,700 (2.6%) were called active. This list was built around the results that the source calls inconclusive (neither active nor inactive); the mix of calls is not that of the screen. Calls come from the whole dose curve; as a rule, active = well fitted inhibition curve with a large enough effect; inconclusive = small, poorly fitted or top-dose-only effect; inactive = no such curve, though single readings can be large or run the other way. A potency beside an inconclusive call is a rough fit, not a confirmed value.
target: Lysine-specific demethylase 5B (Homo sapiens) (UniProt Q9UGL1); assay: Primary screen for KDM5B Histone Demethylases FDH-coupled qHTS; conditions: FDH-coupled NADH fluorescence (FDH is formaldehyde dehydrogenase); activity change, negative = inhibition: at 57.7 µM (top of the series) unless noted; note: nearly all actives have a fitted effect of over 70% in size; for activity change, negative = inhibition: 0% is about no effect
Method in brief: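 qHTS format, multiple compound concentrations. Buffer 50 mM HEPES pH 7.5/0.01% Tween-20; 200 nM KDM5BΔAP final; 10 min compound preincubation; substrate-mix levels 12.5 µM peptide, 25 µM α-KG, 0.25 mM NAD⁺; 30 min RT; ΔRFU.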
Potency is the fitted concentration of half-maximal effect; tags give direction and shape of the fitted curve.

UniProt Q9UGL1, sequence (Q9UGL1 whole entry, looked up): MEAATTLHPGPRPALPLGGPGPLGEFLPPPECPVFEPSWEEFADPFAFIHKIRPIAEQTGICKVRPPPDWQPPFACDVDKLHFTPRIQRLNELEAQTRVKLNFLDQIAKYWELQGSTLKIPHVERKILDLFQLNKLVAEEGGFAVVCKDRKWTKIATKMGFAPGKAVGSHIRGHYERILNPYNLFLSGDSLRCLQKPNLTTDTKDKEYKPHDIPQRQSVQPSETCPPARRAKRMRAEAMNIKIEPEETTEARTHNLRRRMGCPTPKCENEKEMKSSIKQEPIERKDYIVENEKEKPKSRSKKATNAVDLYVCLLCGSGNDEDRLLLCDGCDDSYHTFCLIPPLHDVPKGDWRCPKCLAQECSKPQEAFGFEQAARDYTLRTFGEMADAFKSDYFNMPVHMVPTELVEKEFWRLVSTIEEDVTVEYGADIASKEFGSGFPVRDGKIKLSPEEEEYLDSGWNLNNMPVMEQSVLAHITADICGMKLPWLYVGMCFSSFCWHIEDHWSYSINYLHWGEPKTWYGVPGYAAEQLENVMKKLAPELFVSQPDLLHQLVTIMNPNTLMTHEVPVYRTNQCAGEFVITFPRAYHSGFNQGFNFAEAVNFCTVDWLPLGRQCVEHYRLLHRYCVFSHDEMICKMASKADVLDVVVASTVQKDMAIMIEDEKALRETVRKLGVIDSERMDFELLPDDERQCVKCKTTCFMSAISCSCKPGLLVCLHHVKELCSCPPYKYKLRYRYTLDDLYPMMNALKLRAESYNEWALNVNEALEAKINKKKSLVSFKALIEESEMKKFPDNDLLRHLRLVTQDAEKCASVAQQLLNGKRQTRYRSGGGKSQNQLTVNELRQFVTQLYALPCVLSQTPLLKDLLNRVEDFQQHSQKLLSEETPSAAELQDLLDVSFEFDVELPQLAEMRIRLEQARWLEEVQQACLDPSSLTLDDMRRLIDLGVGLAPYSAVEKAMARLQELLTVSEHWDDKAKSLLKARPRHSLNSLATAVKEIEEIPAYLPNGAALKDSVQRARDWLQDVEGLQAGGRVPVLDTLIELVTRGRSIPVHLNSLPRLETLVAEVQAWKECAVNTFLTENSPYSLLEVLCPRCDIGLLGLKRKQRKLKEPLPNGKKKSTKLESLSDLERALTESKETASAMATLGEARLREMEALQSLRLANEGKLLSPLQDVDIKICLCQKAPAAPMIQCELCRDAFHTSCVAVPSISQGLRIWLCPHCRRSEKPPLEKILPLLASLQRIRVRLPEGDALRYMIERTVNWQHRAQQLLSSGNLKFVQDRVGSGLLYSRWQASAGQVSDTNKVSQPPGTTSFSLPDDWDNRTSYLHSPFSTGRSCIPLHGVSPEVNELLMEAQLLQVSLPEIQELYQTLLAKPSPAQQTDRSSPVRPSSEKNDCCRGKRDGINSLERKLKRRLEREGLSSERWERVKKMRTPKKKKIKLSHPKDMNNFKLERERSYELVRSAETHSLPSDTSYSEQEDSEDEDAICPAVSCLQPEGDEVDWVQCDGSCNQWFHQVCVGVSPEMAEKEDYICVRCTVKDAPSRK

SMILES | Potency | activity change, negative = inhibition
O=C(c1ccc(Cl)cc1)N1CCC(n2cc(-c3ccc(OC(F)F)cc3)[nH]c2=O)CC1 | inconclusive: 56.2 µM [inhibitor, partial curve, poor fit] | –
CN(Cc1ccccc1)C(=O)c1ccc(CSc2nc3cccnc3n2Cc2ccccc2)cc1 | inconclusive: 39.8 µM [inhibitor, partial curve, poor fit] | –
COc1cc(Cl)cc(C(=O)N2CCC3(CCCNC3)C2)c1 (stereo unspecified) | – | inactive: -20%
O=C(Cn1ccn2nc3c(c2c1=O)CCCC3)N1CCc2ccccc21 | inconclusive: 28.2 µM [inhibitor, partial curve, poor fit] | –
CC(C(=O)NCCc1nc2ccccc2n1C)C1CCOCC1 (stereo unspecified) | inconclusive: 31.6 µM [inhibitor, partial curve, poor fit] | –
CCC(C)S(=O)(=O)c1oc(-c2ccc(F)cc2)nc1S(=O)(=O)c1ccc(F)cc1 (stereo unspecified) | inconclusive: 1.78 µM [inhibitor, full curve, poor fit] | –
COc1ccc(-c2noc(-c3cccn3CC(=O)N(C)c3ccc(F)cc3)n2)cc1F | inconclusive: 39.8 µM [inhibitor, single point] | –
Cc1noc(-c2cccs2)c1C(=O)NCc1ccccc1Cl | inconclusive: 28.2 µM [inhibitor, partial curve, poor fit] | –
O=C1CN(CC(=O)Nc2c(Cl)cccc2Cl)CCN1 | – | inactive: -8.74%
Cc1nc(N2CCC(C(=O)NCc3ccc(C(C)C)cc3)CC2)cc(C(F)(F)F)n1 | inconclusive: 28.2 µM [inhibitor, single point] | –
COc1cccc(-c2cc3c(ccn3C)c(C(=O)NCc3c(C)cc(C)[nH]c3=O)n2)c1 | inconclusive: 5.62 µM [inhibitor, partial curve, poor fit] | –
O=[N+]([O-])c1ccc(/C=C2/CCCC3C2=NN(c2ccc([N+](=O)[O-])cc2)C3c2ccc([N+](=O)[O-])cc2)cc1 (stereo unspecified) | – | inactive: -12.8%
COc1ccccc1N1C(=O)C(Cc2ccccc2)N=C1N1CCN(C)CC1 (stereo unspecified) | – | inactive: -8.45%
CC(C)c1ccc(CNCCSc2nnnn2-c2ccccc2)cc1 | inconclusive: 22.4 µM [inhibitor, partial curve, poor fit] | –
CCNC(=O)C1CCCN(c2nn3cc(-c4ccc(C)cc4)nc3s2)C1 (stereo unspecified) | inconclusive: 1 µM [inhibitor, full curve, poor fit] | –
CC(=O)N(Cc1ccccc1)Cc1cc2cccc(C)c2[nH]c1=O | – | inactive: -4.91%
CCOc1ccc(C(=O)NCCc2csc(-c3cccnc3)n2)cc1 | inconclusive: 17.8 µM [inhibitor, partial curve, poor fit] | –
O=C(CCS(=O)(=O)Cc1ccccc1)Nc1cc(C(F)(F)F)ccc1Cl | – | inactive: 12.3%
Cc1nn2c(NCCc3ncc[nH]3)cc(-c3ccccc3)nc2c1C | active: 31.6 µM | –
COc1cc(/C=N/OCCOc2ccccc2C(C)=O)cc(Cl)c1OC | – | inactive: 0.924%
COc1cc([N+](=O)[O-])cc(/C=N/NC(=O)c2cc(-c3ccccc3)nc3ccccc23)c1O | inconclusive: 39.8 µM [inhibitor, single point] | –

SMILES | Potency | activity change, negative = inhibition
O=C(O)c1ccc(CNC2CCCCC2)cc1 | – | inactive: 2.18%
O=C1CCC2(CCNCC2)CN1CCCNc1cccnc1 | inconclusive: 12.6 µM [inhibitor, partial curve, poor fit] | –
Cn1c2ccccc2c2cnn(CC(=O)N3CCCCC3)c(=O)c21 | inconclusive: 22.4 µM [inhibitor, partial curve, poor fit] | –
Cc1ccccc1CN1Cc2nc(-c3ccsc3)ccc2OCC1=O | inconclusive: 35.5 µM [inhibitor, single point] | –
CCCN1C(=O)C2(C(C(=O)c3ccc(C)o3)=C(O)C(=O)N2CCCOC)c2ccccc21 (stereo unspecified) | inconclusive: 22.4 µM [inhibitor, partial curve, poor fit] | –
FC1CCN(Cc2cn(Cc3ccccc3)nc2-c2cc3ccccc3o2)CC1 | inconclusive: 12.6 µM [inhibitor, partial curve] | –
CN(C(=O)Cn1cccc1-c1nc(-c2ccc3c(c2)OCO3)no1)c1ccccc1 | inconclusive: 25.1 µM [inhibitor, single point] | –
CCn1cc(-c2nc3cc(S(=O)(=O)NC(C)C)ccc3n2C(C)C)cn1 | – | inactive: 20.2%
CN(C)c1ccc(CN2CCC3(CC2)C(C(=O)O)CC(=O)N3C)cn1 (stereo unspecified) | inconclusive: 31.6 µM [inhibitor, partial curve, poor fit] | –
COc1cccc(NC(=O)C2CCN(S(=O)(=O)c3c(C)noc3/C=C/c3cccs3)CC2)c1 | inconclusive: 5.01 µM [inhibitor, partial curve, poor fit] | –
COc1ccc(-c2cc(C[C@@H]3CC[C@H](O)[C@@H](CNC4CCOCC4)O3)no2)cc1 | – | inactive: 34.7% [at 86.2 µM]
COC1/C=C\OC2(C)Oc3c(C)c(O)c4c(c3C2=O)C2(C=C(NC(=O)/C(C)=C\C=C/C(C)C(O)C(C)C(O)C(C)C(OC(C)=O)C1C)C4=O)OCC(=O)O2 (stereo unspecified) | inconclusive: 35.5 µM [inhibitor, partial curve, poor fit] | –
CC(C)Oc1ccc(CNC(=O)c2ccc3c(c2)N(C)C(=O)C2CCCCN32)cc1 (stereo unspecified) | inconclusive: 14.1 µM [inhibitor, partial curve, poor fit] | –
NC(=O)c1nsc(C(=O)N(CCCN2CCOCC2)C(C(=O)NC2CCCCC2)c2ccc(Cl)cc2)c1N (stereo unspecified) | inconclusive: 39.8 µM [inhibitor, single point] | –
CC(=O)c1ccc(S(=O)(=O)N2CCn3cccc3C2c2ccc(F)c(F)c2)cc1 (stereo unspecified) | inconclusive: 25.1 µM [inhibitor, partial curve, poor fit] | –
COc1ccc(CC(=O)N2CCc3cc(OC)c(OC)cc3C2O)cc1OC (stereo unspecified) | inconclusive: 39.8 µM [inhibitor, partial curve, poor fit] | –
COc1ccc(N2CCN(CC(O)COc3ccc(F)cc3)CC2)cc1 (stereo unspecified) | inconclusive: 10 µM [inhibitor, partial curve, poor fit] | –
COc1ccc(CNc2ncnc3c2c(-c2ccccc2)cn3-c2cccc(C)c2)cc1 | inconclusive: 35.5 µM [inhibitor, partial curve, poor fit] | –
O=Cc1cccc(-c2cncc(C(=O)O)c2)c1 | inconclusive: 112 µM [inhibitor, partial curve, poor fit] | –
CCOCCCNC(=O)c1cn2c3c(ccc(Cl)c3c1=O)OC(C)C2 (stereo unspecified) | inconclusive: 10 µM [inhibitor, partial curve, poor fit] | –
CN(C)CCCOc1ccc(-c2cnc(N)cn2)cn1 | active: 31.6 µM | –

SMILES | Potency | activity change, negative = inhibition
CCOC(=O)N1CCc2c(sc(NCc3cccc(F)c3)c2C(=O)Nc2ccc(OCC)cc2)C1 | inconclusive: 20 µM [inhibitor, partial curve, poor fit] | –
COc1ccc(C2Cn3nnc(C(=O)N4CCN(C(=O)c5ccc(C)s5)CC4)c3CO2)cc1 (stereo unspecified) | inconclusive: 25.1 µM [inhibitor, partial curve, poor fit] | –
Cc1ccc(-c2nc(Cn3c(SCc4ccc(F)cc4)nc4cccnc43)c(C)o2)cc1 | inconclusive: 2.82 µM [inhibitor, full curve, poor fit] | –
CC(C)C[C@@H]1N[C@H](C(=O)NCc2ccc(C#N)cc2)Cc2c[nH]c3cccc1c23 | inconclusive: 56.2 µM [inhibitor, single point] | –
COc1ccc(C(=O)Nc2nonc2-c2ccc(OC)c(OC)c2)cc1Cl | inconclusive: 31.6 µM [inhibitor, single point] | –
Cc1cc(NC(=O)c2ccc3c(c2)N(C)C2CCCCN2C3=O)ccc1F (stereo unspecified) | inconclusive: 25.1 µM [inhibitor, partial curve, poor fit] | –
CC(C)n1ncc2c(C(=O)Nc3ccccc3)c3c(nc21)CCC3 | – | inactive: 9.81%
CCOC(=O)c1cc2c(=O)n3ccccc3nc2n(CC2CCCO2)c1=NC(=O)c1ccc(F)cc1 (stereo unspecified) | inconclusive: 25.1 µM [inhibitor, partial curve, poor fit] | –
O=C(c1ccccc1)[C@@H]1[C@@H](C(=O)c2ccco2)[C@@]2(C(=O)Nc3ccccc32)[C@H]2c3ccccc3C=CN12 | inconclusive: 12.6 µM [inhibitor, partial curve, poor fit] | –
CCn1c(/C=C2\C(=O)N(C(C)C)c3ccccc32)nc2ccccc2c1=O | inconclusive: 39.8 µM [inhibitor, single point] | –
O=C(Nc1ccccc1O)c1csc(NC2CC2)n1 | inconclusive: 17.8 µM [inhibitor, partial curve, poor fit] | –
Cc1nn(-c2ccc(Cl)nn2)c2c1C(c1ccc(O)cc1)CC(=O)N2 (stereo unspecified) | – | inactive: -3.9%
COc1cc(OC)cc(-c2nc(C3CC(=O)N(c4ccc(OC)c(OC)c4)C3)no2)c1 (stereo unspecified) | active: 28.2 µM | –
Fc1ccc(CNC(=S)Nc2ccccc2)cc1 | – | inactive: 17.3%
CC(C)c1nnc2sc(-c3cc4ccccc4[nH]3)nn12 | inconclusive: 22.4 µM [inhibitor, single point] | –
O=C(O)[C@H]1C[C@@H](C(=O)NCc2ccncc2)CN(C(=O)CC2CCCC2)C1 | inconclusive: 28.2 µM [inhibitor, partial curve, poor fit] | –
Nc1ccccc1C(=O)NCc1cccnc1 | inconclusive: 28.2 µM [inhibitor, partial curve, poor fit] | –
O=C(CSc1nc(-c2ccccc2)cs1)Nc1ccc(OC(F)F)cc1 | – | inactive: -2.07%
CC(Cn1ccnc1-c1cc2n(n1)CCCNC2)N1CCN(C)CC1 (stereo unspecified) | inconclusive: 5.01 µM [inhibitor, single point] | –

— PubChem BioAssay AID1347165 (National Center for Advancing Translational Sciences (NCATS), 2019)
